Measurements taken from US8795997B2 (priority 2009, dated 2014).

Tested on: baker's yeast (Saccharomyces cerevisiae)
Format: cell-based
Conditions: 6 h fermentation (FIG. 4)
Experimental: The pH of the sugarcane bagass and spruce hydrolysates were adjusted to 5.5 with a 5 M solution of sodium hydroxide. The conditioning of each hydrolysate was performed in eight 100-mL glass vessels equipped with magnetic stirrer bars. 26 mL hydrolysate was added to all vessels, and the vessels were placed on a magnetic stirrer plate (IKA-Werke, Staufen, Germany). Sodium dithionite (chemical grade; >87%, Merck, Darmstadt, Germany) was added to hydrolysates in the concentrations 5 and 10 mM. Additions of sodium sulphite to 5 and 10 mM were also performed. The additions were made at room temperature (23° C.) and the samples were kept for 10 min with stirring. The experiments were performed in duplicates.
The efficiency of the additions of the reducing agents was compared with alkali detoxification.
Ethanol measurements were performed by using an enzymatic kit (Ethanol UV-method, Boehringer Mannheim GmbH, Mannheim, Germany). Fermentation experiments were performed to evaluate the effectiveness of the additions and treatments. For comparison, untreated hydrolysates were included in the fermentation experiments as well as reference fermentations of sugar-based medium with an amount of fermentable sugars (i.e. glucose and mannose) corresponding to that in the hydrolysate samples. The fermentations were carried out using baker's yeast (Saccharomyces cerevisiae) (Jastbolaget AB, Rotebro, Sweden). […]

Row | Compound | Ethanol production from sugarcane bagass hydrolysate
1 | O=S([O-])S(=O)[O-].[Na+].[Na+] [Dithionite, Sodium dithionite] | high ethanol production
2 | O=S([O-])[O-].[Na+].[Na+] [Sulphite, sodium sulphite] | high ethanol production
